# Where “and” joins values, the source holds several entries; their conditions need not be identical. Equal entries are not always repeated. Screen size: about 420,000 compounds; about 64,000 (15%) were called active. The shares of active, inactive and inconclusive entries below differ from those in the screen. Calls follow the shape of the dose curve; as a rule, active = well fitted inhibition curve with a large enough effect; inconclusive = small, poorly fitted or top-dose-only effect; inactive = flat fitted curve, though single readings scatter. Where the call is inconclusive, the potency comes from a doubtful curve fit.
# Experiment: qHTS for Inhibitors of human tyrosyl-DNA phosphodiesterase 1 (TDP1): qHTS in cells in absence of CPT; also: nearly all actives have a fitted effect of over 55% in size
# Conditions: DT40 Tdp1-/- hTDP1 cells, no CPT, ATP luminescence, 48 h; activity change, negative = growth inhibition: at 46.2 µM (top of the series) unless noted
# Procedure, shortened: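 A cellular qHTS used chicken DT40 cells lacking endogenous Tdp1 but carrying stably transfected human TDP1. Compounds were applied without camptothecin, and cell growth kinetics were judged by ATP-dependent luminescence after ≥48 hr.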
# % is scaled to controls: 0 for no effect and ±100 for the full control effect; potency is read from the fitted curve at half-maximal effect; tags tell the direction and shape of the fitted curve.
SMILES,"activity change, negative = growth inhibition",Potency
CCc1nc2ccc(C(=O)NCCCn3ccnc3)cn2c1N(C)C(=O)COc1ccccc1,inactive: 3.33%,–
O=C(NCc1ccc(Cl)cc1)c1cc2ccc3cccnc3c2[nH]1,–,"inconclusive: 29.1 µM [inhibitor, single point]"
C=CCn1c2ccccc2c2nnc(SC(CC)C(=O)Nc3sc4c(c3C#N)CCCC4)nc21 (stereo not given),–,"inconclusive: 23.1 µM [inhibitor, single point]"
COc1cccc(-n2c(SCC(=O)Nc3cccc(C)c3)nc3c([nH]c4ccccc43)c2=O)c1,–,"inconclusive: 29.1 µM [inhibitor, single point]"
Cc1cc(/C=C(\C#N)C(=O)NCc2ccco2)c(C)n1-c1cccnc1,inconclusive: -33.9% [inhibitor],–
CC/C(=N/NC(=O)c1ccc(Br)cc1)c1ccc(OCCN2CCOCC2)cc1,–,"inconclusive: 16.4 µM [inhibitor, single point]"
CCn1c(NN)nc2sc3c(c2c1=O)CCC3,–,"inconclusive: 29.1 µM [inhibitor, single point]"
Cc1nc(N2CCCC2)ncc1C(=O)NCc1ccc(Cl)cc1,–,"inconclusive: 29.1 µM [inhibitor, single point]"
CCOC(=O)Nc1sc(C(=O)N(C)C)c(C)c1C(=O)OCC,inactive: -18.5%,–
Cc1ccc(-c2cnc3c(Cl)c(C)nn3c2)cc1,–,active: 10.3 µM
CNS(=O)(=O)c1cccc(C(=O)OCCCC(=O)c2ccccc2)c1,–,"inconclusive: 20.6 µM [inhibitor, single point]"
CC1=C(c2ccc(F)cc2)S(=O)(=O)N=C1N1CCC(C(=O)NCCc2ccccc2)CC1,inactive: 0.0052%,–
O=C(CN(Cc1ccccc1)C(=O)c1cc2c(s1)CCC2)NCc1cccs1,–,"inconclusive: 29.1 µM [inhibitor, single point]"
O=C(Cc1cccs1)NCCc1csc(-c2ccccc2)n1,–,"inconclusive: 18.4 µM [inhibitor, single point]"
O=C(Nc1cc2c3c(c1)C1CCCC1CN3CC1CCCC21)c1ccc([N+](=O)[O-])cc1 (stereo not given),–,"inconclusive: 18.4 µM [inhibitor, partial curve]"
CN(C(=O)Nc1ccccc1)C1CCCc2ccccc21 (stereo not given),–,"inconclusive: 18.4 µM [inhibitor, single point]"
CCOC(=O)Cn1cc(C(=O)c2cccs2)c2ccccc21,inactive: -19.2%,–
O=C(CSc1nncc(=O)[nH]1)Nc1cccc([N+](=O)[O-])c1,–,"inconclusive: 20.6 µM [inhibitor, single point]"
COC(=O)c1cc(NC(=O)CC2Oc3ccccc3NC2=O)cc(C(=O)OC)c1 (stereo not given),–,"inconclusive: 29.1 µM [inhibitor, single point]"
CSc1ccc(C#N)cc1NC(=O)c1ccccc1,inactive: -3.96%,–
CN1CCN(c2oc(-c3ccccc3Cl)nc2S(=O)(=O)c2ccccc2)CC1,–,"inconclusive: 18.4 µM [inhibitor, single point]"
COC(=O)CC(NC(=O)c1ccco1)c1ccc(C(C)C)cc1 (stereo not given),–,"inconclusive: 16.4 µM [inhibitor, single point]"
COCCCNC(=O)c1ccc(-c2c(C)noc2C)c2ccoc12,–,"inconclusive: 29.1 µM [inhibitor, single point]"
CC(=O)Nc1ccc(-c2ccnc3c2CC(C)(C(=O)NCc2cccc(Cl)c2)O3)cc1 (stereo not given),–,active: 23.1 µM

SMILES,"activity change, negative = growth inhibition",Potency
COc1ccc(CCN2C(=O)CCC2(C)c2nnnn2-c2ccc3c(c2)OCCO3)cc1OC (stereo not given),–,"inconclusive: 18.4 µM [inhibitor, single point]"
CCc1c(C)nc(SCC(=O)NC2CCCC2)[nH]c1=O,inactive: 5.26%,–
COc1cc(CN(C(=O)COc2ccc(Cl)cc2)c2ccccn2)cc(OC)c1OC,–,active: 8.2 µM
CCN(CC)C(=O)Cn1nc(-c2ccc(Cl)cc2)c2ccccc2c1=O,inactive: -26.5%,–
Cc1ccc2c(CC(=O)NCC(C)(C)N3CCOCC3)coc2c1,inactive: -3.61%,–
O=C(COc1ccccc1Cl)N1CCN(c2ccc([N+](=O)[O-])c(N3CCCCC3)c2)CC1,–,active: 23.1 µM
CN(C(=O)c1ccco1)c1nc2c(s1)CCCC2,–,"inconclusive: 32.6 µM [inhibitor, single point]"
Cc1nn(CC(=O)NCc2ccc(-n3cccn3)cc2)c(C)c1[N+](=O)[O-],inactive: -5.1%,–
COc1cccc(N2[C@@H](CC(C)=O)c3cc(C(F)(F)F)ccc3S2(=O)=O)c1,–,"inconclusive: 22.4 µM [inhibitor, single point] and inconclusive: 25.9 µM [inhibitor, single point]"
CCN1CCN(C(=O)c2oc(=O)c3ccccc3c2-c2ccc(C)cc2)CC1,–,"inconclusive: 18.4 µM [inhibitor, single point]"
CCc1nc2ccc(C(=O)Nc3cc(-c4ccccc4)ccc3OC)cn2c1N(CC)Cc1cccc(Br)c1,–,"inconclusive: 23.1 µM [inhibitor, single point]"
COc1ccc(CCNC(=O)c2ccc(Cl)c(S(=O)(=O)N3CCCC3)c2)cc1,–,active: 23.1 µM
CCc1ccc2occ(CC(=O)Nc3nnc(C)s3)c2c1,inactive: -24.4%,–
CC(C)CC1C(=O)N(Cc2cn(CC3CCCCC3)nn2)CCS(=O)(=O)N1Cc1ccc(-c2cccc(C#N)c2)cc1 (stereo not given),–,"inconclusive: 16.4 µM [inhibitor, single point]"
O=C(CSc1nc2c([nH]c3ccccc32)c(=O)n1-c1ccccc1)NCc1ccc(F)cc1,–,"inconclusive: 16.4 µM [inhibitor, single point]"
CN1CCN(c2oc(COc3ccc(-c4ccccc4)cc3)nc2C#N)CC1,–,"inconclusive: 23.1 µM [inhibitor, single point]"
CCNC(=O)C1CCN(c2nc3ccccc3nc2C(F)(F)F)CC1,–,"inconclusive: 16.4 µM [inhibitor, partial curve]"
CCC(C)Nc1nc(-c2cccc(OC)c2O)nc2ccccc12 (stereo not given),–,"inconclusive: 25.9 µM [inhibitor, single point]"
CCOc1ccc(C(=O)N2CCc3cc(OC)c(OC)cc3C2)cc1OCC,–,active: 29.1 µM
CC(NC(=O)COc1ccccc1)C(=O)OCC(=O)c1cc2ccccc2o1 (stereo not given),–,"inconclusive: 25.9 µM [inhibitor, single point]"
Cc1cccc(CN2C(=O)CSc3ccc(C(=O)NC4CC4)cc32)c1,–,"inconclusive: 16.4 µM [inhibitor, single point]"
CCSC(C)CC1C/C(=N/O)c2c(CC)noc2C1 (stereo not given),–,"inconclusive: 23.1 µM [inhibitor, single point]"
CCOc1ccc(N2C(=O)CC(Sc3nc(C)cc(C)c3C#N)C2=O)cc1 (stereo not given),–,"inconclusive: 15.8 µM [inhibitor, single point]"
O=C(O/N=C\c1ccc(N2CCCCC2)c([N+](=O)[O-])c1)c1c(F)cccc1F,–,"inconclusive: 14.6 µM [inhibitor, partial curve, poor fit]"

SMILES,"activity change, negative = growth inhibition",Potency
CC(C)n1ncc2c(C(=O)N3CCN(c4ccccc4)CC3)cc(-c3ccccc3)nc21,–,"inconclusive: 23.1 µM [inhibitor, single point]"
CC(=O)c1nn(-c2ccc(OC(F)(F)F)cc2)nc1Nc1ccc(Cl)cc1,–,"inconclusive: 2.59 µM [inhibitor, full curve]"
COc1ccccc1-c1cc(-c2ccc(O)cc2)nc(N)c1C#N,–,"inconclusive: 29.1 µM [inhibitor, single point]"
NS(=O)(=O)c1ccc(NC(=S)NC2CCCCC2)cc1,inactive: 10.5%,–
O=C(NNS(=O)(=O)c1ccc([N+](=O)[O-])cc1)c1ccc([N+](=O)[O-])cc1,inactive: -21.1%,–
Cc1ccc(S(=O)(=O)NC(=NC2CCCCC2)c2ccc(Cl)cc2)cc1,inactive: 0.393%,–
O=C(CCc1c[nH]c2ccccc12)NCCc1ccc(O)cc1,inactive: 16.9%,–
COCCn1c(=S)[nH]c2cc(C(=O)NCc3ccc(F)cc3)ccc2c1=O,–,"inconclusive: 16.4 µM [inhibitor, single point]"
O=C(CN1C(=O)C2(SCC(=O)N2c2ccccc2)c2ccccc21)Nc1ccccc1C(F)(F)F (stereo not given),–,"inconclusive: 29.1 µM [inhibitor, single point]"
COc1ccc(CCNC(=O)c2c(Cl)ccc(Cl)c2OC)cc1OC,inactive: -19%,–
CN(Cc1cn[nH]c1-c1cc2ccccc2o1)CC1CCOCC1,inactive: -4.03%,–
COc1cc(OC)nc(Nc2nc(C(N)CCc3ccccc3)cs2)n1 (stereo not given),–,"inconclusive: 18.4 µM [inhibitor, single point]"
CCc1ccc2c(c1)C(NC(C)=O)C(=O)N2CCN1CCOCC1 (stereo not given),inactive: 0.56%,–
Cc1cccn2c(=O)c(/C=C(\C#N)C(=O)NCc3ccco3)c(N3CCCCC3)nc12,–,"inconclusive: 18.4 µM [inhibitor, single point]"
Cc1ccc(C(=O)N(C)CC(=O)Nc2ccc(Cl)c(C(F)(F)F)c2)cc1S(=O)(=O)N1CCCCC1,–,active: 23.1 µM
COc1ccc(S(=O)(=O)N2CCC(C(=O)NC(C)c3ccccc3)CC2)cc1 (stereo not given),inconclusive: -30.8% [inhibitor],–
CC(C)c1cc(C(=O)O)n[nH]1,inactive: -6.63%,–
COC(=O)c1ccccc1SC1CC(=O)N(c2ccccc2)C1=O (stereo not given),inactive: -26.3%,–
O=C(Nc1ccc(Cl)cc1Cl)c1cnn2c1NC(=C1CC1)C=C2C(F)F,inactive: -28.8%,–
O=C1CC(N2CCN(c3ccccn3)CC2)C(=O)N1CC(c1ccccc1)c1ccccc1 (stereo not given),–,"inconclusive: 23.1 µM [inhibitor, single point]"
CCOC(=O)C1CCCN(C(=O)Cn2c(=O)cc(C)c3c(C)nn(C)c32)C1 (stereo not given),–,"inconclusive: 23.1 µM [inhibitor, single point]"
CC(C)Oc1cccc(C(=O)C2CCCN(Cc3cnn(C(C)C)c3)C2)c1 (stereo not given),–,"inconclusive: 16.4 µM [inhibitor, single point]"

# — PubChem BioAssay AID686978 (National Center for Advancing Translational Sciences (NCATS), 2013)
